According to PubChem BioAssay AID2451 (National Center for Advancing Translational Sciences (NCATS), 2010):
Out of some 290,000 compounds screened, about 2,100 (0.72%) were called active. Inconclusive results, whose numbers are uncertain, are shown with a selection of clear calls. Calls come from the whole dose curve; as a rule, active = well fitted inhibition curve with a large enough effect; inconclusive = small, poorly fitted or top-dose-only effect, or effect the other way; inactive = flat fitted curve, though single readings scatter. Potencies of inconclusive entries are doubtful fits and often do not repeat. Some compounds were tested as several samples or in several runs, with calls that do not always agree.

Biological target: Fructose-bisphosphate aldolase (Giardia intestinalis (strain ATCC 50803 / WB clone C6)) (UniProt A8B2U2)
Chain of UniProt A8B2U2 (A8B2U2 whole entry, looked up): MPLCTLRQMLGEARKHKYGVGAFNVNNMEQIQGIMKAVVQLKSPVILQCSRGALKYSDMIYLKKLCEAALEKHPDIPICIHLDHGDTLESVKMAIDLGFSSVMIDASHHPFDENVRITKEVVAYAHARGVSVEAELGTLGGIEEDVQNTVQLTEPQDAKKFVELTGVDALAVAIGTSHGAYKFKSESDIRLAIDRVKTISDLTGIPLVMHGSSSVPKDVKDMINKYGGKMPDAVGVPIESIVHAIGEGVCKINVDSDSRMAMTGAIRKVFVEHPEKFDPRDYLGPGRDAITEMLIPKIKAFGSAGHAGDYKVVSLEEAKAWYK
Experiment: qHTS Assay for Inhibitors of Fructose-1,6-bisphosphate Aldolase from Giardia Lamblia; note: nearly all actives have a fitted effect of over 55% in size
Conditions: purified Giardia FBPA; series mostly up to 59.6 µM
Outline: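 40 nM FBPA preincubated 10 min at RT with compound (up to 57.5 uM final), then substrate plus GAPDH/TPI/NAD/arsenate coupling and diaphorase/resazurin added. Fluorescence read after 20 min at RT, 525/598 nm.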
Potency is the fitted concentration of half-maximal effect; tags give direction and shape of the fitted curve.

Row | SMILES | Potency
1 | COc1cc2cc(CN(Cc3nnnn3Cc3ccco3)C3CCCCC3)c(=O)[nH]c2cc1OC | active: 10 µM
2 | Cc1nn(-c2ccccc2)c2c1C(c1c(C)[nH]c(C#N)c1C)C(C#N)=C(N)O2 (stereo not drawn) | inconclusive: 15.8 µM [inhibitor, single point]
3 | O=C(Nc1nnc(-c2ccc(F)cc2)o1)c1cc(Cl)sc1Cl | inconclusive: 17.7 µM [activator, partial curve]
4 | CN(C)c1ccc(-c2noc(C3CCN(C(=O)Nc4ccc(Cl)cc4)CC3)n2)cc1 | inactive
5 | C=CCn1c(-c2ccc3ncccc3c2)n[nH]c1=S | inconclusive: 1.99 µM [inhibitor, full curve]
6 | COc1ccc(S(=O)(=O)Nc2ccc(S(=O)(=O)Nc3cc(C)nc(C)n3)cc2)cc1OC | inconclusive: 35.5 µM [inhibitor, single point]
7 | CCOC(=O)CC(=O)CSc1nc2nc(C)cc(C)n2n1 | inconclusive: 17.7 µM [inhibitor, partial curve]
8 | COc1ccc(OC)c(NC(=O)CSc2ccc3nnc(-c4cccnc4)n3n2)c1 | inactive
9 | COc1ccc(NS(=O)(=O)c2ccc(C(=O)N3CCN(Cc4ccccc4)CC3)cc2)cc1 | inactive
10 | Cc1ccc(-c2ccnc3[nH]n(-c4ccccc4)c(=O)c23)cc1 | inconclusive: 28.2 µM [inhibitor, partial curve]
11 | CC1CN(CCOc2cccc(Oc3ccccc3)c2)CC(C)O1 (stereo not drawn) | inconclusive: 28.2 µM [inhibitor, partial curve]
12 | Cc1cc(C)c(NC(=S)NC(=O)c2c(Cl)c(C)nn2C)c([N+](=O)[O-])c1 | inconclusive: 5 µM [inhibitor, full curve]
13 | CN(C)c1ccc(CN(C(=O)/C=C/c2ccco2)C2CCS(=O)(=O)C2)cc1 (stereo not drawn) | inactive
14 | Cc1ccc(-n2ncc3c(NCCCOC(C)C)ncnc32)c(C)c1 | inactive
15 | O=C(c1ccco1)N1CCN(Cc2ccccc2F)CC1 | inconclusive: 17.8 µM [inhibitor, single point]
16 | O=C(Nc1ccccc1C(=O)O)/C(=C/c1ccc([N+](=O)[O-])cc1)NC(=O)c1ccc(Br)o1 | active: 17.7 µM
17 | Oc1cc(-n2cccn2)c(O)cc1-n1cccn1 | inconclusive: 12.6 µM [inhibitor, partial curve]
18 | CCCCn1c(SCn2nnc3ccccc3c2=O)nc2cc(S(N)(=O)=O)ccc21 | inactive
19 | Cc1cccc(N(CC(=O)O)CC(=O)O)c1 | inactive
20 | COC(=O)C1C(O)C(C)C(O)C(C)/C=C\C=C(/C)C(=O)Nc2c(C)c(OC(C)=O)c3c(c2O)C(=O)C(C)=C2OCOC(=C23)/C(C)=C/C(C)(O)C(O)C(C)C1O (stereo not drawn) | inconclusive: 6.29 µM [inhibitor, partial curve]
21 | Nc1ccc2nonc2c1[N+](=O)[O-] | inconclusive: 2.23 µM [inhibitor, full curve, poor fit]
22 | CCOc1ccc(C(=O)CN2CCN(S(=O)(=O)c3ccc(F)cc3)CC2)cc1 | inactive
23 | COC(=O)C(Cc1cccc(C)n1)(c1ccccc1)c1ccccc1 | inactive
24 | O=C(CSc1nnc2c3ccccc3c3ccccc3c2n1)Nc1ccccc1 | inconclusive: 17.7 µM [inhibitor, single point]

Row | SMILES | Potency
25 | Cn1c(=O)c2c(nc(NNC(=O)C(F)(F)F)n2C)n(C)c1=O | active: 17.7 µM
26 | Cc1ccc(NCC(=O)N/N=C/c2ccc(C(=O)O)cc2)cc1 | inconclusive: 31.5 µM [inhibitor, single point]
27 | O=C1CN(C(=S)NC(=O)c2ccccc2[N+](=O)[O-])CCN1 | active: 11.2 µM
28 | COc1ccc(CN2CCC(N3CC(C)OC(C)C3)CC2)c(OC)c1OC (stereo not drawn) | inconclusive: 17.8 µM [inhibitor, partial curve]
29 | C=CCNc1nc(N2CCCCC2)c(C#N)c2c1CN(Cc1ccccc1)CC2 | inconclusive: 12.6 µM [inhibitor, partial curve]
30 | CCOC(=O)c1c(-c2ccccc2)oc2ccc(OCC(=O)O)cc12 | inconclusive: 22.3 µM [activator, partial curve]
31 | Cc1ccccc1NCc1ccc([N+](=O)[O-])s1 | inactive
32 | Cc1sc2nc(CN3CCCC3)nc(N3CCN(S(=O)(=O)c4cccs4)CC3)c2c1C | inactive
33 | CC1COC(=O)O1 (stereo not drawn) | inactive
34 | O=S(=O)(c1ccc(Cl)cc1)N1CCN(Cc2cccnc2)CC1 | inactive
35 | CNC(=S)NNC(=O)c1c(C)nc2cc(C)ccn12 | inconclusive: 14.1 µM [inhibitor, partial curve]
36 | CC1CC(C)CN(S(=O)(=O)c2ccc(C(=O)Nc3nnc(-c4cccs4)o3)cc2)C1 (stereo not drawn) | inconclusive: 17.7 µM [activator, partial curve]
37 | CCCCCc1cc(=O)oc2c(C(CCN3CCCCC3)c3cc(OC)c(OC)c(OC)c3)c(OC)cc(OC)c12 (stereo not drawn) | inactive
38 | COc1cccc(N2CCN(Cc3ccco3)CC2)c1 | active: 25.1 µM
39 | Cc1nc2ccccn2c1-c1csc(Nc2cccc(C(=O)O)c2)n1 | inconclusive: 17.8 µM [inhibitor, partial curve]
40 | O=c1cc(CO)oc(C(Nc2cccc([N+](=O)[O-])c2)c2ccccn2)c1O (stereo not drawn) | inconclusive: 17.7 µM [inhibitor, partial curve]
41 | CCOC(=O)c1c(OCC)[nH]c2c1cc(O)c1ccccc12 | active: 19.9 µM
42 | c1ccc(-c2ccccn2)nc1 | inconclusive: 44.6 µM [inhibitor, single point]
43 | Cc1cc(/C=C2\NC(=O)NC2=O)c(C)n1-c1ccc(N2CCOCC2)cc1 | inactive
44 | COc1ccc(CN2CCNCC2)c(OC)c1OC | active: 22.4 µM
45 | O=C(O)c1ccc2[nH]c3c(c2c1)CSCC3 | inconclusive: 12.6 µM [inhibitor, partial curve]
46 | COc1cccc(CN2CCN(C(=O)CC(C)C)CC2)c1 | inconclusive: 25.1 µM [inhibitor, single point]
47 | Nc1nc(=S)c2ncn(C3OC(CO)C(O)C3O)c2[nH]1 (stereo not drawn) | active: 6.29 µM
48 | CCc1ccccc1NC(=O)CN(C)C(=O)Cn1cc(C(F)(F)F)cc(Cl)c1=O | inconclusive: 17.7 µM [inhibitor, partial curve]
